Measurements: PMC4336329 (PLoS ONE, 2015)
Hit rate of the full screen: of about 310,000 compounds, about 2,200 (0.71%) showed an effect of 50% or more. The effect is printed as a negative number. The list shows a part of the results. Where a SMILES comes first, the peptide text is derived from it. [ ]: non-standard residue; d: D form. The star is where a group is joined. ξ: configuration not given here. Tos = Cc1ccc(S(=O)(=O)*)cc1; ξP = O=C(O)C1CCCN1

Each compound was assayed against human ether-à-go-go-related gene (hERG) potassium channel (human, UniProt Q12809) (assay: primary screen, population patch clamp on CHO cells stably expressing hERG).
human ether-à-go-go-related gene (hERG) potassium channel, sequence (Q12809 whole entry, looked up): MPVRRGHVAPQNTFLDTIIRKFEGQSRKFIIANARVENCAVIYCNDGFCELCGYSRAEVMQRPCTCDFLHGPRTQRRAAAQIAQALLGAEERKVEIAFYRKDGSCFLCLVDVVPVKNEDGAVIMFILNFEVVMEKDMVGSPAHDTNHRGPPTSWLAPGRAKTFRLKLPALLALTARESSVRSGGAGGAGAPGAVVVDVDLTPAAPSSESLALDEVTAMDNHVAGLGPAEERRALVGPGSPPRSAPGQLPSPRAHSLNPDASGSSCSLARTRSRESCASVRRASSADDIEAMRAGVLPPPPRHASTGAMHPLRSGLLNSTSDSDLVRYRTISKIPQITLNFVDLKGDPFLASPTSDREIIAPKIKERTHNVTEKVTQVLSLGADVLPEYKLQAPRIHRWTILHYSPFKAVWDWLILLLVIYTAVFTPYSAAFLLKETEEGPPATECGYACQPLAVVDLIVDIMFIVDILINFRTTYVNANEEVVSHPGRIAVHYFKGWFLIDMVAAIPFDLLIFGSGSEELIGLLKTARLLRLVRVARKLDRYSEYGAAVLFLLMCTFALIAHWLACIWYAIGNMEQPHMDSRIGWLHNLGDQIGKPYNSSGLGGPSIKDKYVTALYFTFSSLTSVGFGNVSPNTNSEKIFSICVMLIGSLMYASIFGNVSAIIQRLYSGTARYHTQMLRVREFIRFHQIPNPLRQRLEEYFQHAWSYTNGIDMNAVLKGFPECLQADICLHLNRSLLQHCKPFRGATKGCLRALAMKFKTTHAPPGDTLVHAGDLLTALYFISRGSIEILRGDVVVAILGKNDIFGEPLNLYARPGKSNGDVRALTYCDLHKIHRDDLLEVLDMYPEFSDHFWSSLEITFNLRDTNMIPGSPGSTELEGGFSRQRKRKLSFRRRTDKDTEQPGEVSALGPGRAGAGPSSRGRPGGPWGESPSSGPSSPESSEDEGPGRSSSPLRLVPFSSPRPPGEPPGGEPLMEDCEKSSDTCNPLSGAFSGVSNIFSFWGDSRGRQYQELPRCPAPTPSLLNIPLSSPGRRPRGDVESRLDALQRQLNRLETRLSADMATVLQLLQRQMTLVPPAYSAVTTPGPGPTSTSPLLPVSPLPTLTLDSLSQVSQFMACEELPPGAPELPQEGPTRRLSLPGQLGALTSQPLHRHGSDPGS

| Structure (SMILES) | hERG current change (%, negative = inhibition) at 1uM |
| --- | --- |
| COc1ccc(OC)c(-c2nnc(SCC(=O)N3CCCc4ccccc43)o2)c1 | -2.73% |
| O=C(NCCCN1CCCC1)c1ccc2c(c1)N(Cc1ccc(F)cc1)C(=O)c1ccccc1S2=O (centres unmarked) | 8.48% |
| O=c1c2c(nc3n1CCCCC3)-c1ccccc1CC21CCCCC1 | 11.7% |
| CCc1nn(CCCC(=O)NCc2cc(Br)ccc2OC)c(=O)c2cc3occc3n12 | 4.24% |
| O=C(CCNS(=O)(=O)c1ccccc1)N1CCN(C(c2ccccc2)c2ccccc2)CC1 | -5.28% |
| COc1cc(C(=O)NCCC2=CCCCC2)ccc1OCc1c(C)noc1C | 14.9% |
| COc1ccccc1N1CCN(C(=O)CCCn2c(=O)[nH]c3ccsc3c2=O)CC1 | 11.5% |
| CCCn1nnnc1NC(=O)c1cc(Cl)ccc1Cl | 9.33% |
| N/C(=N\OC(=O)CC1CCCCC1)c1ccccc1 | 1.81% |
| Cc1cc(C)n(-c2nnc(C)n2/N=C/c2ccc(O)cc2)n1 | 14.8% |
| Cc1c(C(=O)NCc2ccco2)cccc1[N+](=O)[O-] | 9.75% |
| Cc1cccn2c(=O)c3cc(S(=O)(=O)c4ccccc4)c(=N)n(CC4CCCO4)c3nc12 (centres unmarked) | 7.88% |
| O=S(=O)(c1ccc(Cl)cc1)N1CCCN(c2nc3ccc(Cl)cc3s2)CC1 | 9.45% |
| CC1(CC(=O)Nc2ccccc2)NC(=S)N(c2ccccc2)N1 (centres unmarked) | 20.5% |
| C=CCn1nc2n(c1=O)-c1ccccc1SC2 | 5.29% |
| CCc1nc(SCC(=O)NCc2ccccc2)c2c(=O)n(C)c(=O)n(C)c2n1 | -3.05% |
| Cc1ccc(SCC(=O)O/N=C(\N)c2ccc([N+](=O)[O-])cc2)cc1 | -0.381% |
| Brc1ccc(/C=N/Nc2nncc(-c3ccccc3)n2)o1 | 4.76% |
| Cc1cc(NC(=O)c2ccccc2)nc2c1c(=O)oc1ccccc12 | 17.1% |
| COc1ccc2[nH]cc(CCNC(=O)Cc3ccc(Br)cc3)c2c1 | 9.07% |
| C/C(=N\NC(=O)CNC(=O)c1ccc(F)cc1)c1ccco1 | 12.4% |
| Fc1ccc(-c2nc3ccccc3[nH]2)cc1 | 13.9% |

| Structure (SMILES) | hERG current change (%, negative = inhibition) at 1uM |
| --- | --- |
| COc1ccc(OCCCON2C(=O)c3ccccc3C2=O)cc1 | 6.98% |
| Cc1ccc(-c2onc3ccc(Cl)cc23)cc1 | 5.22% |
| O=C1NC(c2ccc(Cl)cc2)Oc2ccccc21 (centres unmarked) | 16.1% |
| COc1ccc(C(=O)Nc2ccc3oc(-c4cccnc4)nc3c2)cc1OC | 13.5% |
| CCc1cc(C(=O)N2CCN(S(=O)(=O)c3cc(C)ccc3C)CC2)sc1C | 13.5% |
| CCOC(=O)c1ccc(NC(=O)CCNc2c(N3CCCC3)c(=O)c2=O)cc1 | 13.1% |
| Cc1ccc(S(=O)(=O)NCC(=O)N2CCCC2C(=O)O)cc1 (stereo not drawn) (Tos-Gly-[ξP]-OH) | 8.34% |
| CCN(CC)C(=O)N1CCN(S(=O)(=O)c2c(C)cc(C)cc2C)CC1 | 11.4% |
| Clc1ccc(-n2nnc(-c3cccnc3Cl)n2)cn1 | 2% |
| COc1cc(/C=N/NC(=O)COc2ccc([N+](=O)[O-])cc2)ccc1OCC(=O)N1CCOCC1 | 21.6% |
| Cc1ccc(CNc2nc(C)c(C(=O)N(C)C)s2)cc1 | 11.9% |
| Cc1ccc(C)c(C2NC(=O)c3ccccc3N2)c1 (centres unmarked) | 14.8% |
| COc1ccc(NC(=O)CN(C)C(=O)c2ccc(-c3cccc(C(F)(F)F)c3)o2)cc1 | 11.9% |
| CSCCC1NC2(C(=O)Nc3c(Cl)cccc32)[C@@H]2C(=O)N(C3CCCC3)C(=O)[C@H]12 (some centres unmarked) | 2.45% |
| CCOC(=O)C1=C(C)NC2=C(C(=O)CCC2)C1c1ccc(O)c(OCC)c1 (centres unmarked) | 5.99% |
| Cc1ccc(OCC(=O)N/N=C/c2cn(Cc3ccccc3)c3ccccc23)cc1 | 14.7% |
| COc1ccc(CNC(=O)C2CC(c3cc(C(F)(F)F)cc(C(F)(F)F)c3)=NO2)cc1 (centres unmarked) | 11.6% |
| CN1CCN(Cc2cc(C(C)(C)C)c(O)c(C(C)(C)C)c2)CC1 | 5.2% |
| C=CCN(C(=O)c1cc(C)cc(C)c1)C1(C(=O)Nc2ccccc2)CCN(C(C)C)CC1 | 4.58% |
| COc1cc(S(=O)(=O)N2CCCCC2)ccc1NC(=O)/C=C/c1ccccc1 | 3.25% |
| O=C(CNS(=O)(=O)c1ccccc1)N1CCN(C(=O)c2ccco2)CC1 | -0.9% |
| CSc1nnc(-c2ccccc2)c(-c2ccccc2)n1 | 12.5% |

| Structure (SMILES) | hERG current change (%, negative = inhibition) at 1uM |
| --- | --- |
| COc1cc(NS(=O)(=O)c2ccc(NC(=O)CN3C(=O)c4ccccc4C3=O)cc2)nc(OC)n1 | 15.5% |
| CSc1nc(C)[nH]c(=O)c1C#N | 15.7% |
| CCOC(=O)C(C(=O)NCc1cccc(OC)c1)c1ncc(C(F)(F)F)cc1Cl (centres unmarked) | 9.84% |
| CC(=O)c1ccc(S(=O)(=O)N2CCN(c3ccccc3F)CC2)cc1 | 8.26% |
| COc1ccc(CN2C(=O)c3cccnc3C2O)cc1 (centres unmarked) | 11.2% |
| O=C1CC(=O)Nc2cc(S(=O)(=O)N3CCOc4ccc(Cl)cc43)ccc2N1 | 3.45% |
| C=CC1=C(C(=O)O)N2C(=O)[C@@H](NC(=O)/C(=N\O)c3csc(N)n3)[C@H]2SC1 | 2.79% |
| Cc1ccc(C)c(C(=O)CCC(=O)N2CCN(c3cccc(C(F)(F)F)c3)CC2)c1 | 11.4% |
| COc1ccccc1/C=C/C(=O)c1ccccc1 | 7.55% |
| Cc1cc(C)n(/N=C/c2cccs2)c(=O)c1C#N | 5.14% |
| Cc1ccc(F)cc1NC(=O)c1ccc2c(c1)OCO2 | 13.3% |
| CCC(C)c1ccc(OCC(=O)Nc2ccc3[nH]c(=O)[nH]c3c2)cc1 (centres unmarked) | 3.56% |
| CCN(CC)C(=O)C1CCCN(C(=S)Nc2cccc3ccccc23)C1 (centres unmarked) | 11.7% |
| Cc1cc(-c2ccc(C)c(S(=O)(=O)N3CCN(c4ccccn4)CC3)c2)on1 | 6.4% |
| COc1ccccc1NC(=O)C(CC(C)C)NC(=O)C1CCCCC1 (centres unmarked) | 4.24% |
| O=C(O)COc1ccccc1-c1nc(-c2ccccc2)c(-c2ccccc2)[nH]1 | 12.4% |
| COc1ccc(C(=O)NN2C(=O)C3C4C=CC(O4)C3C2=O)cc1 (centres unmarked) | 6.24% |
| CC1CCN(CC(O)COCCOc2ccc(Br)cc2)CC1.Cl (centres unmarked) | -23% |
| COc1ccccc1N(Cc1cc(=O)[nH]c2ccccc12)C(=O)c1ccccc1 | 17.8% |
| CCOC(=O)C1C(=O)NC(N2CCN(CC)CC2)=NC1c1ccccc1 (centres unmarked) | 11% |
| Cc1ccc(S(=O)(=O)N2[C@@H](c3cccc(Cl)c3)C(C(=O)O)=CC[C@H]2c2cccc(C)c2)cc1 | 7.45% |
| Cc1ccc(C(=O)Nc2cccc(C(F)(F)F)c2)cc1NC(=O)c1nccnc1N | 12.3% |

| Structure (SMILES) | hERG current change (%, negative = inhibition) at 1uM |
| --- | --- |
| Cc1cc(C)n(CC(=O)Nc2cccc(C(F)(F)F)c2)n1 | 8.66% |
| COC(=O)c1ccc(N2CCOCC2)c(NC(=O)c2cccnc2)c1 | 5.37% |
| COCCNC(=O)C(c1ccc(C)cc1)N(C(=O)CCC(=O)Nc1ccccn1)C1CCCCC1 (centres unmarked) | 17.7% |
| CCn1nc(CC(=O)O)c2ccccc2c1=O | 27.7% |
| CCc1csc(CNC(=O)C2CCC(=O)N(Cc3cccc(F)c3)C2)n1 (centres unmarked) | 11.9% |
| CC(C)(C)N1C(=O)c2ccc(C(=O)Nc3cc(C(=O)O)cc(C(=O)O)c3)cc2C1=O | 15.3% |
| COc1cc(OC)c(C2N(c3ccc(Cl)cc3)C(=O)C3CCCN32)cc1OC (centres unmarked) | 7.88% |
| CN1CCN(C(=O)C2=C[C@H](c3ccccc3)C[C@H](OCc3ccc(CO)cc3)O2)CC1 | -9.47% |
| C[n+]1cccc(/C=N/Nc2nc(Cl)c(C#N)c(Cl)c2Cl)c1.[Cl-] | 10.3% |
| COc1ccc(/C=C(/NC(=O)c2ccccc2)C(=O)NCc2ccco2)cc1 | 20.7% |
| O=C1N=c2ccccc2=C1c1sc(Nc2cccc(O)c2)nc1O | 12% |
| CC(C)C1=C2OC(N)=C(C#N)C(C#N)=C2C(C)CC1 (centres unmarked) | 6.75% |
| O=C(c1cc(-c2ccc(F)cc2)no1)N1CCN(Cc2ccc3c(c2)OCO3)CC1 | -7.43% |
| Cc1cc(C)c2c(N)c(C(=O)Nc3ccccc3Br)sc2n1 | 19.4% |
| O=C(Cc1ccccc1)NC(NC(=O)Cc1ccccc1)c1cccc([N+](=O)[O-])c1 | 5.29% |
| C(=N\n1cnnc1)/c1ccc(OC2CSC2)cc1 | 2.24% |
| Cc1cc(Nc2cccc(Cl)n2)n(-c2ccccc2)n1 | 7.99% |
| CCOc1ccc(NC(=S)Nc2ccc(OC)cc2)cc1 | 18.4% |
| CC(=O)c1cccc(NC(=O)CSc2ccc(-c3ccc4c(c3)OCO4)nn2)c1 | 5.16% |
| Cc1ccc(S(=O)(=O)N(C)Cc2ccc(C(=O)N/N=C/c3ccc(OC(F)F)cc3)cc2)cc1 | 11.4% |
